Source: PubChem BioAssay AID938 (National Center for Advancing Translational Sciences (NCATS), 2007)
The whole screen tested about 73,000 compounds, of which about 1,800 (2.5%) were called active. The shares of active, inactive and inconclusive entries below differ from those in the screen. Calls follow the shape of the dose curve; as a rule, active = well fitted activation curve with a large enough effect; inconclusive = small, poorly fitted or top-dose-only effect; inactive = no such curve, though single readings can be large or run the other way. Potencies of inconclusive entries are left out as doubtful fits.

test: qHTS Assay for Agonists of the Thyroid Stimulating Hormone Receptor: Activators of Intracellular cAMP Concentrations in Parental HEK 293; conditions: parental HEK293 CNG cAMP sensor, membrane potential fluorescence; activation: at 57.1 µM (top of the series) unless noted; also: nearly all actives have a fitted effect of over 55% in size; as to activation: % of control where 0% means no effect
Method in brief: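 Parental HEK 293 cells stably expressing a cAMP-gated CNG channel were loaded with membrane potential dye containing 100 uM RO 20-1724 for 60 min. Compound added for 30 min; depolarization read as fluorescence intensity at 590 nm.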
Potency is read from the fitted curve at half-maximal effect; tags tell the direction and shape of the fitted curve.

Structure (SMILES) | Potency | activation
CC(C)=CCC(C)(C)C1OCCN1C(=O)c1ccccc1 (stereo unspecified) | inconclusive [activator, single point] | 
O=C(Cc1c(F)c(F)c(F)c(F)c1F)OC12CC3CC(C1)C(=O)C(C3)C2 | inconclusive [activator, partial curve] | 
COc1cc(C(=O)OCCCN2CCCN(CCCOC(=O)c3cc(OC)c(OC)c(OC)c3)CC2)cc(OC)c1OC | inconclusive [activator, single point] | 
O=C(c1ccco1)N1CCN(c2nc(C(F)(F)F)nc3c2nnn3Cc2ccccc2)CC1 | inconclusive [activator, partial curve] | 
CC(C)=CCC/C(C)=C/CO/N=C1/C[C@@H](O)[C@@H](O)[C@@H]2[C@@H]3C(=O)N([C@@H](C)c4ccccc4)C(=O)[C@H]3CC[C@@H]12 |  | inactive: -8.66% [at 11.4 µM]
Cn1c(NCCCO)nc2c(c1=O)C1(CCCCC1)Cc1ccccc1-2 | inactive | 
CS(=O)(=O)N1CCC2(CC1)CN(c1ccc(-c3ccccc3)cc1)C2 | inactive | 
CC(Oc1ccc(Cl)cc1Cl)C(=O)Nc1ccncc1 (stereo unspecified) | inconclusive [activator, single point] | 
CCC/C=C(\CCC)C(NC(=O)c1cccs1)c1ccc(C(F)(F)F)cc1 (stereo unspecified) | inconclusive [activator, full curve] | 
COc1cc(NC(=O)NCCN2CCN(c3ccc(Cl)cc3)CC2)ccc1C | inactive | 
O=C(CNC(=O)c1ccco1)OCC(=O)c1ccc2c(c1)CCCC2 | inactive | 
O=C(Nc1ccc(S(=O)(=O)N2CCOCC2)cc1)c1cccs1 | inconclusive [activator, single point] | 
COC(=O)[C@@H]1C[C@H]1[C@@H](NC(=O)c1ccc(Br)cc1)c1ccccc1 | inconclusive [activator, partial curve] | 
C=C(C)CC1(c2ccccc2)Oc2ccccc2-c2nc3cc(Cl)c(Cl)cc3nc21 (stereo unspecified) |  | inactive: -3.08% [at 11.4 µM]
C(=Nc1cnc2ccccc2c1)c1ccc2ccccc2n1 |  | inactive: 8.14% [at 11.4 µM]
O=C(O)CCC(=O)N1CCc2cc(S(=O)(=O)N3CCC(Cc4ccccc4)CC3)ccc21 | inconclusive [activator, single point] | 
COc1cc2nc(C3CCC3)n(NC(=O)C3CCCC(OC)C3)c(=O)c2cc1OC (stereo unspecified) | inconclusive [activator, single point] | 
COc1ccc(C(=O)CSc2nnc(CNC(=O)c3ccc(OC)cc3)n2C)cc1 | inconclusive [activator, single point] | 
c1ccc(-n2nnnc2SCCCSc2nc3ccccc3s2)cc1 | inconclusive [activator, partial curve] | 
CCOC(=O)CSc1ccc2nnc(-c3ccncc3)n2n1 | inactive | 
CCOC(=O)N1CCN(C(=O)Cn2ncc3ccccc32)CC1 | inconclusive [activator, single point] | 
Nc1nc(CSc2nnnn2-c2ccccc2)nc(N2CCCc3ccccc32)n1 | inactive | 
OCCNCCCOc1cccc(Cl)c1Cl | inconclusive [activator, single point] | 

Structure (SMILES) | Potency | activation
COC(=O)COc1ccc(S(=O)(=O)NCCC2=CCCCC2)cc1 | inactive | 
O=C1c2c(O)cccc2Cc2cccc(O)c21 | inconclusive [activator, single point] | 
CCNc1ncc2nc(CCc3ccccc3)c(=O)n(CCC#N)c2n1 | inconclusive [activator, partial curve] | 
CCC(Sc1nc2c(cnn2-c2ccc(Cl)cc2)c(=O)[nH]1)C(=O)OC (stereo unspecified) | inconclusive [activator, full curve] | 
Cn1c(=O)c(-c2ccc(Cl)cc2)nc2cnc(Oc3ccccc3)nc21 | inactive | 
CN1c2cc3c(cc2N=C(c2ccc(C(=O)O)cc2)c2ccccc21)C(C)(C)CCC3(C)C | inconclusive [activator, full curve] | 
COc1ccc(-n2nc(C(=O)NCc3ccco3)c3c4ccccc4n(C)c3c2=O)cc1 | active: 10 µM | 
Cc1noc(C)c1-c1nc(NC2CC2)c2ccccc2n1 | inconclusive [activator, single point] | 
CCOC(=O)c1ccccc1NC(=O)c1cccs1 | active: 25.1 µM | 
O=C1C2C3C=CC(C3)C2C(=O)N1c1cccc2cccnc12 (stereo unspecified) | inconclusive [activator, single point] | 
COc1ccc(CCNC(=O)CSc2nnc(CNc3ccc(Cl)cc3)o2)cc1OC | inconclusive [activator, full curve] | 
c1ncc(-c2ccoc2)c(NC2CC2)n1 | active: 3.98 µM | 
COC(=O)c1cc2occc2n1CC(=O)Nc1ccc(C)cc1C | inconclusive [activator, partial curve, poor fit] | 
Cc1cc(C)n2nc(SCn3nnc4ccccc4c3=O)nc2n1 | inactive | 
COCCN1CCn2c(nc3cc(NC(=O)NC4CCCCC4)ccc32)C1 | inconclusive [activator, single point] | 
CCCC(c1nnnn1Cc1ccco1)N1CCN(C2CCCC2)CC1 (stereo unspecified) | active: 15.8 µM | 
COc1ccccc1C(O)P(=O)(OC(C)C)c1ccc(N(C)C)cc1 (stereo unspecified) | inconclusive [activator, single point] | 
O=C1CCC[C@@H](C2=CCCCC2=O)C1 |  | inactive: -3.99% [at 11.4 µM]
CCOCCCNC(=O)c1ccc2c(c1)ncn2C1CCCC1 | inactive | 
COC(=O)c1sc(NC(=O)c2csc3c2CCCC3)nc1C | inconclusive [activator, single point] | 
COc1ccc2nc3c(cc2c1)Cc1ccccc1-3 | active: 25.1 µM | 
CCOC(=O)C(CCOc1cccc(CC)c1)C(=O)OCC | inconclusive [activator, partial curve] | 
CC1=C(C(=O)Nc2ccccc2)C(c2ccco2)C(C#N)=C(SCC(=O)OC(C)C)N1 (stereo unspecified) | active: 20 µM | 
